Values joined by “and” are separate entries in the source; they are usually repeats but may differ in a detail not shown here. Equal entries are not always repeated. Among all 73,000 compounds or so, about 1,800 (2.5%) were called active. The shares of active, inactive and inconclusive entries below differ from those in the screen. Calls follow the shape of the dose curve; as a rule, active = well fitted activation curve with a large enough effect; inconclusive = small, poorly fitted or top-dose-only effect; inactive = no such curve, though single readings can be large or run the other way. Potencies beside an inconclusive call are fits to weak or partial responses and may not hold up.
Assay: qHTS Assay for Agonists of the Thyroid Stimulating Hormone Receptor: Activators of Intracellular cAMP Concentrations in Parental HEK 293; also: nearly all actives have a fitted effect of over 55% in size; as to activation: % of control where 0% means no effect
Conditions: parental HEK293 CNG cAMP sensor, membrane potential fluorescence; activation: at 57.1 µM (top of the series) unless noted
Outline: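 Parental HEK 293 cells stably expressing a modified CNG channel (no TSHR) report cAMP rise as membrane depolarization. Membrane potential dye with 100 uM RO 20-1724 was loaded for 60 min at room temperature, then compound added for 30 min; fluorescence read at 590 nm.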
With `O=S(=O)(Nc1nc2ccccc2nc1NCCO)c1cccc(Cl)c1` the Potency was inconclusive: 39.8 µM [activator, single point]. In the case of `COc1cccc(-c2ccc3ncnc(NCc4cnc(C)cn4)c3c2)c1`, the Potency is reported as “inactive”. For `COCc1c(C(=O)OCC(=O)c2c(N)n(CC(C)C)c(=O)n(C)c2=O)oc2ccccc12`, the Potency was inconclusive: 2.51 µM [activator, full curve]. With `O=C(CSc1nc2ccccc2c(=O)n1Cc1ccco1)c1ccc(F)cc1` the Potency was active: 25.1 µM. For `CCN1C(=O)[C@H]2[C@H]3[C@H](O)[C@H](O)C/C(=N/O[C@@H](C)CN4CCCCc5nc(C)c(C)cc54)[C@@H]3CC[C@@H]2C1=O`, the activation was inactive: -0.141% [at 11.4 µM]. In the case of `Cc1cccc(CS(=O)(=O)Cc2ccc(C(=O)NCc3cccnc3)o2)c1`, the Potency is reported as inconclusive: 31.6 µM [activator, single point]. In the case of `Fc1ccc(Nc2ncnc3ccc(-c4ccoc4)cc23)cc1`, the Potency is reported as active: 12.6 µM. With `COC(=O)c1ccc(C23CC2(C(NP(=O)(c2ccccc2)c2ccccc2)c2ccccc2)C3)cc1` (centres undefined) the Potency was inconclusive: 0.398 µM [activator, full curve, poor fit]. For `Cc1cc(S(=O)(=O)N2CCN(c3c(C)cccc3C)CC2)ccc1F`, the Potency was inconclusive: 15.8 µM [activator, partial curve]. For `COC(=O)c1ccc(C(NC(=O)OCc2ccccc2)/C(C)=C/[C@@H](C)C(=O)NCCc2c[nH]c3ccc(OC)cc23)cc1` (some centres undefined), the Potency was “inactive”. With `O=C(NC1CCCC1)C(c1cccs1)N(C(=O)c1ccco1)c1ccc2c(c1)OCCO2` (centres undefined) the Potency was inconclusive: 15.8 µM [activator, partial curve]. In the case of `CN(C)S(=O)(=O)c1ccc(S(=O)(=O)N(Cc2ccccn2)Cc2ccco2)cc1`, the Potency is reported as “inactive”. With `O=C(Nc1ccc(Cl)cc1C(=O)NCc1cccnc1)c1ccco1` the Potency was inconclusive: 39.8 µM [activator, single point]. With `CCN(CC)COC(=S)S` the activation was inactive: 1.7% [at 11.4 µM]. With `FC(F)(F)c1ccccc1-c1nc(Nc2ccncc2)c2ccccc2n1` the Potency was inconclusive: 25.1 µM [activator, single point]. With `CO[C@H]1COC(=O)C/C=C\[C@H](C)COC(=O)[C@@H](C)NC(=O)C/C=C\[C@@H]1C` the activation was inactive: -5.62% [at 11.4 µM]. With `COc1cc2c(cc1OC)C(c1ccncc1)CC(=O)N2` (centres undefined) the Potency was inconclusive: 39.8 µM [activator, single point]. For `NCCC[C@@H](CC(=O)N[C@@H]1CCNC[C@H]1C(=O)N[C@H](CC(=O)N[C@@H](CCC(=O)O)CC(=O)O)Cc1ccccc1)NC(=O)C[C@H](CO)NC(=O)[C@@H]1CNCC[C@H]1N`, the Potency was inconclusive: 0.005 µM [activator, full curve, poor fit]. For `CC(C)CO/N=C1/[C@H]2O[C@@H]2[C@@H](O)[C@H]2[C@H]1CCn1c(=O)n(C)c(=O)n12`, the activation was inactive: 0.955% [at 11.4 µM]. For `COc1cc(S(=O)(=O)N(Cc2ccc(C)cc2)C2CCCCC2)ccc1-n1cnnn1`, the Potency was “inactive”. With `COc1ccc(C(=O)CSc2nnc(CNc3nc(-c4ccccc4)cs3)n2C)cc1` the Potency was inconclusive: 31.6 µM [activator, single point]. With `COc1cccc2cc(-c3csc(CCn4nc(C)cc4C)n3)c(=O)oc12` the Potency was inconclusive: 39.8 µM [activator, single point]. For `Cc1ccc(S(=O)(=O)N(C)Cc2nc(-c3ccc(Br)cc3)no2)cc1`, the Potency was inconclusive: 25.1 µM [activator, single point]. For `Cc1noc(C)c1C(=O)N1CCC2(CC1)CCN(c1cccc(-c3ccccc3)c1)CC2`, the Potency was “inactive”. For `COc1cc(C(=O)N2CCN(C(=O)COc3ccc4ccccc4c3)CC2)cc(OC)c1OC`, the Potency was “inactive”. For `O=C(NCc1ccc(Cl)cc1)c1ccc(COCC(F)(F)F)o1`, the Potency was inconclusive: 25.1 µM [activator, single point]. For `CC(=O)NCCNc1nc(-c2ccccc2C(F)(F)F)nc2ccccc12`, the Potency was inconclusive: 25.1 µM [activator, single point]. With `Cc1ccccc1-c1cc(NCc2ccccc2)ncn1` the Potency was inconclusive: 6.31 µM [activator, full curve, poor fit]. With `CS(=O)(=O)Nc1cccc(-c2ccc3ncnc(NCc4cccnc4)c3c2)c1` the Potency was “inactive”. In the case of `CCCn1c(-c2ccc(F)cc2)nc2c(N3CCN(CCn4ccnc4)CC3)nc(C)nc21`, the Potency is reported as inconclusive: 25.1 µM [activator, partial curve]. With `COC(=O)[C@@]1(Cc2ccc(OC)cc2)[C@H]2c3cc(C(=O)N4CCCC4)n(Cc4ccc(OC)c(OC)c4)c3C[C@H]2CN1C(=O)c1ccccc1` the Potency was active: 5.01 µM. With `C=CS(=O)(=O)c1ccc(Oc2ccc(S(=O)(=O)C=C)cc2)cc1` the Potency was inconclusive: 15.8 µM [activator, partial curve]. In the case of `Cc1c(C(=O)OC2CCCCC2)[nH]c2c1C(=O)CC(C)(C)C2`, the Potency is reported as inconclusive: 3.16 µM [activator, full curve, poor fit]. With `O=C(NCc1cccs1)c1noc2c1CCCC2` the Potency was inconclusive: 5.01 µM [activator, single point]. For `COc1ccc(OC)c(C(c2nnnn2CCc2ccccc2)N2CCN(c3ccccc3)CC2)c1` (centres undefined), the Potency was inconclusive: 3.98 µM [activator, full curve]. For `CCC(=O)N1CCN(c2ccc(NC(=O)c3cc4ccccc4o3)cc2Cl)CC1`, the Potency was inconclusive: 39.8 µM [activator, single point]. With `CCCCCCCCCCCCCCCCCCOC[C@@H](COP(=O)([O-])OCC[N+](C)(C)C)OC` the Potency was “inactive”. With `Cc1c(C(=O)NN2CCOCC2)nn(-c2ccc(Cl)cc2Cl)c1-c1ccc(I)cc1` the Potency was “inactive”. With `O=C(NC1CCCCC1)C1CCCN(c2nnnn2-c2ccccc2)C1` (centres undefined) the Potency was “inactive”. For `c1ccc(-c2oc3ncnc(NCCCN4CCOCC4)c3c2-c2ccccc2)cc1`, the Potency was inconclusive: 31.6 µM [activator, single point]. In the case of `C=C/C(C)=C/[C@]1(C)SC(=O)C(C)=C1O`, the Potency is reported as “inactive”. For `CCC(C)(C)n1nnnc1C(c1cc2cc(OC)ccc2[nH]c1=O)N1CCc2ccccc21` (centres undefined), the Potency was inconclusive: 5.01 µM [activator, partial curve]. With `Cc1nc(-n2nnc3ccccc32)c2c3c(sc2n1)CCCC3` the Potency was active: 20 µM. In the case of `CCNc1ncc2nc(C)c(=O)n(C[C@H]3CCCO3)c2n1`, the Potency is reported as “inactive”. In the case of `CC(C)NC(=O)[C@@H]1C[C@H]1[C@@H](NC(=O)OCc1ccccc1)c1ccccc1`, the Potency is reported as inconclusive: 1.58 µM [activator, partial curve]. With `Cc1ccc(C)c(SCC(=O)Nc2nnc(-c3ccccc3)o2)c1` the Potency was “inactive”. With `Cc1noc(C)c1-c1nc(NC2CCNCC2)c2ccccc2n1` the Potency was “inactive”. For `CCOC(=O)CNC(=O)CSc1ncnc2c1cnn2-c1ccc(C)cc1`, the Potency was “inactive”. With `O=C1CCc2cc(OCCCCc3nnnn3C3CCCCC3)ccc2N1` the Potency was “inactive and inconclusive: 39.8 µM [activator, single point]”. For `Cc1cccc(OCC(=O)Nc2cccc(-c3nnc(-c4ccccc4)o3)c2)c1C`, the Potency was inconclusive: 3.16 µM [activator, single point]. With `CCC/C=C(\CCC)C(NP(=O)(c1ccccc1)c1ccccc1)c1ccc(-c2ccccc2)cc1` (centres undefined) the Potency was “inactive”. With `CCC/C=C(\CCC)C(NC(=O)c1ccco1)c1ccc(C(=O)OC)cc1` (centres undefined) the Potency was active: 25.1 µM. With `N#Cc1cccc(-c2ccc3ncnc(NCc4ccccc4)c3c2)c1` the Potency was inconclusive: 10 µM [activator, partial curve]. With `COC(=O)c1sc(NC(=O)COc2ccccc2OC)nc1C` the Potency was inconclusive: 6.31 µM [activator, single point]. In the case of `COc1cccc(-c2nn(C)c3sc(C(=O)N4CCN(c5ccccn5)CC4)cc23)c1`, the Potency is reported as inconclusive: 31.6 µM [activator, single point]. For `Cn1c(=O)c(-c2ccc(F)cc2)nc2cnc(Nc3ccccc3)nc21`, the Potency was “inactive”. In the case of `CSCCOC(=O)c1[nH]c2c(c1C)C(=O)CC(c1ccco1)C2` (centres undefined), the Potency is reported as “inactive”. With `CCn1c(=O)c(C(=O)NCc2ccc(OC)c(OC)c2)c(O)c2ccccc21` the Potency was inconclusive: 10 µM [activator, partial curve]. In the case of `O=C(NCc1ccc(Cl)cc1Cl)c1ccccn1`, the Potency is reported as active: 25.1 µM. For `NC(=O)c1oc2ccccc2c1NC(=O)C1CCCCC1`, the Potency was inconclusive: 39.8 µM [activator, single point]. With `O=C(c1cccc(F)c1)N1CCC[C@@]2(CCN(Cc3ccccc3)C2)C1` the activation was inconclusive: 42.4% [activator]. In the case of `C=CCn1c(=O)c2ccccc2n2c(SCC(=O)N3CCCc4ccccc43)nnc12`, the Potency is reported as inconclusive: 25.1 µM [activator, partial curve]. For `CC(C)Oc1cc(O)c2c(=O)c(-c3ccc(O)cc3)coc2c1`, the Potency was inconclusive: 5.01 µM [activator, full curve, poor fit]. With `COc1ccc2c(CSc3nc4nc(C)cc(C)n4n3)cc(=O)oc2c1` the Potency was “inactive”. For `Cn1c(=O)oc2cc(S(=O)(=O)NCCC(=O)N3CC=C(c4ccccc4)CC3)ccc21`, the Potency was “inactive”. In the case of `CCOC(=O)CC(=O)CSc1nc(C)nc2c1oc1ccccc12`, the Potency is reported as “inactive”. With `CCCn1c(=N)c(C(=O)NCc2ccc3c(c2)OCO3)cc2c(=O)n3cccc(C)c3nc21` the Potency was “inactive”. With `COC(=O)C1CCCN1C(C(=O)NC1CCCCC1)c1ccc(Cl)cc1` (centres undefined) the Potency was inconclusive: 2.51 µM [activator, partial curve]. In the case of `N#CCC(=O)Nc1sc2c(c1C(N)=O)CCCC2`, the Potency is reported as “inactive”.

— PubChem BioAssay AID938 (National Center for Advancing Translational Sciences (NCATS), 2007)
Potency is read from the fitted curve at half-maximal effect; tags tell the direction and shape of the fitted curve.
